The results in this text go back to article PMC7242911 (Cell, 2020).

The assay deals with T1, Recombinant chicken calmodulin (chicken, UniProt P62149).
T1 construct: calmodulin, chicken; The NMR methods cite Nakashima et al., 1996 for the CaM; also called CaM; source: recombinant (Nakashima et al., 1996)
The assay can be described thus: NMR titration; 1H,15N-HSQC; CaM titrated into 0.5 mM 13C,15N-labeled recAQP4ct, 0 and 2 molar equivalents; 20 mM Bis-Tris pH 7, 100 mM KCl, 6 mM CaCl2, 30°C. The conditions noted are these: both partners purified.

B1: Recombinant carboxyl terminus of AQP4 (recAQP4ct; […]) (domain or fragment)
chain: not shown
modifications: uniformly 13C, 15N-labeled
notes: cloning artifact left at the amino-terminus after PreScission cleavage; aquaporin-4, human, cytosolic carboxy-terminal tail, […] of NP_001641.1; Cloned in pGEX-6P1; also called recAQPct; rAQP4ct; source: E. coli BL21(DE3), M9 minimal medium, purified (glutathione-Sepharose 4B, cleaved on-column with PreScission Protease); not shown: GST, N-terminal, cleaved
For B1, the binding result is reported as “binds”.
